The source gives many values for each of these; only a part stands here.
Tests used:
Type in all cases: ADME, organism-based, Macaca mulatta
[1] = Drug level in normal rhesus monkey parietal cortex assessed as standard uptake value at 152.9 MBq, iv after 85 mins by microPET; conditions: in vivo
[2] = Drug level in normal rhesus monkey frontal cortex assessed as standard uptake value at 152.9 MBq, iv after 75 mins by microPET; conditions: in vivo, 1.25 h
[3] = Drug level in normal rhesus monkey frontal cortex assessed as standard uptake value at 152.9 MBq, iv after 52.5 mins by microPET; conditions: in vivo, 0.875 h
[4] = Drug level in normal rhesus monkey frontal cortex assessed as standard uptake value at 152.9 MBq, iv after 32.5 mins by microPET; conditions: in vivo
[5] = Drug level in normal rhesus monkey white matter assessed as standard uptake value at 152.9 MBq, iv after 65 mins by microPET; conditions: in vivo
[6] = Drug level in normal rhesus monkey parietal cortex assessed as standard uptake value at 152.9 MBq, iv after 37.5 mins by microPET; conditions: in vivo, 0.625 h
[7] = Drug level in normal rhesus monkey frontal cortex assessed as standard uptake value at 152.9 MBq, iv after 47.5 mins by microPET; conditions: in vivo
[8] = Drug level in normal rhesus monkey pons assessed as standard uptake value at 152.9 MBq, iv after 47.5 mins by microPET; conditions: in vivo
[9] = Drug level in normal rhesus monkey parietal cortex assessed as standard uptake value at 152.9 MBq, iv after 14 mins by microPET; conditions: in vivo
[10] = Drug level in normal rhesus monkey pons assessed as standard uptake value at 152.9 MBq, iv after 52.5 mins by microPET; conditions: in vivo, 0.875 h
[11] = Drug level in normal rhesus monkey white matter assessed as standard uptake value at 152.9 MBq, iv after 10 mins by microPET; conditions: in vivo
[12] = Drug level in normal rhesus monkey thalamus assessed as standard uptake value at 152.9 MBq, iv after 52.5 mins by microPET; conditions: in vivo, 0.875 h
[13] = Drug level in normal rhesus monkey parietal cortex assessed as standard uptake value at 152.9 MBq, iv after 1.5 mins by microPET; conditions: in vivo, 0.025 h
[14] = Drug level in normal rhesus monkey frontal cortex assessed as standard uptake value at 152.9 MBq, iv after 0.5 mins by microPET; conditions: in vivo

- SUV [1]: 0.596
- SUV [2]: 0.658
- SUV [3]: 0.74
- SUV [4]: 1.06
- SUV [5]: 0.867
- SUV [6]: 0.99
- SUV [7]: 0.774
- SUV [8]: 1.17
- SUV [9]: 1.925
- SUV [10]: 1.023
- SUV [11]: 1.564
- SUV [12]: 1.065
- SUV [13]: 0.467
- SUV [14]: 0.043
SMILES: [11CH3]Nc1ccc(-c2nc3ccc(O)cc3s2)cc1 [PITTSBURGH COMPOUND B]

— ChEMBL document CHEMBL1154674, “Synthesis and evaluation of three 18F-labeled aminophenylbenzothiazoles as amyloid imaging agents” (J Med Chem, 2009)
